# Some of the results follow.
# Molecular target: T1, OsWOX13 (Oryza sativa, UniProt Q5QMM3 1-267)
# T1 sequence: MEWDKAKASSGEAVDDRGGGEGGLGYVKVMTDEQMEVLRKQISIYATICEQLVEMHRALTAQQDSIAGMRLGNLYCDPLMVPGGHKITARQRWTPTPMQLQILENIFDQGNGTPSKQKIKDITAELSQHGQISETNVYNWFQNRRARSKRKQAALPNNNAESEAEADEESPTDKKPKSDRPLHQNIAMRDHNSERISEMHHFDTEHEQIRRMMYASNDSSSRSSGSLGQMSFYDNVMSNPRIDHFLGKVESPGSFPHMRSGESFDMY
# Experiment: protein-binding microarray (RPBM); PBS, 2% BSA, 51.3 ng/ul salmon testes DNA, 50 uM zinc acetate, 200 nM TF, 25 C, 1 h; high values mean tight binding
# Conditions: protein: recombinant; tags: N-terminal polyhistidine and DsRed monomer fusion (pET32a); label: CyDye5-dUTP incorporated in the synthesized complementary strand; 3' TTTTT single-stranded linker to array surface; dsDNA, one strand shown
# Procedure, shortened: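 Ni–NTA purification followed expression in E. coli BL21-CodonPlus of transcription factors fused N-terminally to a polyhistidine tag and DsRed. At 200 nM in PBS with 2% BSA, salmon testes DNA and 50 µM zinc acetate, the protein was incubated for 1 h at 25 °C with a custom Agilent array that had been primer-extended with Cy5-dUTP and blocked with 2% BSA. After washing, the array was read on an Axon 4000B scanner. The binding signal is per-feature fluorescence intensity in arbitrary units.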
row,Sequence,binding signal
1,ACATCACTAATTAATGTAATTTAAGTGGCTCATTTGCTCACGGAGTCACCTAGTGCAG,31900 fluorescence intensity (a.u.)
2,ACTTAATAGATAATAAATATAATAGTTGTCTCTTCATATTCGGAGTCACCTAGTGCAG,12900 fluorescence intensity (a.u.)
3,CTTCTGCTAGGTTTGATTGCTTCGTGTTTGATTGCGCGGTCGGAGTCACCTAGTGCAG,13100 fluorescence intensity (a.u.)
4,TTGCCACTGATTAATTTTACAAGAGTTAGATTTGACTTTTCGGAGTCACCTAGTGCAG,8860 fluorescence intensity (a.u.)
5,ATCATGGACATAATTTTGTTTAATCCCCACCAAATTGTCCCGGAGTCACCTAGTGCAG,7000 fluorescence intensity (a.u.)
6,ATGCATGATTAATTTCTACTTTCTAGTAATAGGAAATCTCCGGAGTCACCTAGTGCAG,11700 fluorescence intensity (a.u.)
7,GAACTAATCACAAATTTCCACCATACAATGCCGCTGTACTCGGAGTCACCTAGTGCAG,13300 fluorescence intensity (a.u.)
8,TTCTCTAATTGAGTCAAAAGTGTCATTTGTCGTTTTGTCGCGGAGTCACCTAGTGCAG,44200 fluorescence intensity (a.u.)
9,ACAAATTAGCTTGAACATACATAATTTCCAGACAAGGAAACGGAGTCACCTAGTGCAG,19600 fluorescence intensity (a.u.)
10,TTTGATATAATTGTAGTGGCATATATGATAAATCAGTATACGGAGTCACCTAGTGCAG,7900 fluorescence intensity (a.u.)
11,CCTAAATGACTTATTTGTCCATTTTGTGTCTTACGAGTTGCGGAGTCACCTAGTGCAG,17800 fluorescence intensity (a.u.)
12,TTTGACAGATGTAATTATAGTACAATCGTAGTGTAATTACCGGAGTCACCTAGTGCAG,34300 fluorescence intensity (a.u.)
13,CTTCCAATTTATTGGCTCACAATACATTATCTAAATCCCTCGGAGTCACCTAGTGCAG,4520 fluorescence intensity (a.u.)
14,GCTGACATGATTTGGATCCTTAAACACCACAGACCAGATGCGGAGTCACCTAGTGCAG,27000 fluorescence intensity (a.u.)
15,TTCAATGAAACTAATTTAATGTCATAGATGTTGGTATACTCGGAGTCACCTAGTGCAG,4920 fluorescence intensity (a.u.)
16,ATACCATTAAATTGAACTTTAATTAAGTGCATATGCCTAACGGAGTCACCTAGTGCAG,22700 fluorescence intensity (a.u.)
17,AACCTGCCAAACTGCCAATCCCCGTCGTCTCGTCTTCCCTCGGAGTCACCTAGTGCAG,3920 fluorescence intensity (a.u.)
18,TAGCTAATAATTAATTAATTACGTCCTAATAAGCTATTGACGGAGTCACCTAGTGCAG,35900 fluorescence intensity (a.u.)
19,TACTAATTTTGCTAACATAAGATACCGTACTCTCTTAATTCGGAGTCACCTAGTGCAG,12100 fluorescence intensity (a.u.)
20,TCAATAATTTGAATTTGAATTTCAAATTATGACAACTTCACGGAGTCACCTAGTGCAG,18100 fluorescence intensity (a.u.)
21,CTGATTTGTAACTCGTTTTGCCGCATAGTAGTTGAAAACGCGGAGTCACCTAGTGCAG,19700 fluorescence intensity (a.u.)

row,Sequence,binding signal
1,ATTTGACTCGCAAATTAATCGCAATCTGTGTAATTAGTTTCGGAGTCACCTAGTGCAG,20600 fluorescence intensity (a.u.)
2,GACTTGATTACCACGCGTATACTATATAGGACAAAATTGCCGGAGTCACCTAGTGCAG,17800 fluorescence intensity (a.u.)
3,AATGATGGATGGGCAATGGCGCCAGCCCATAAGGCGTCAACGGAGTCACCTAGTGCAG,6140 fluorescence intensity (a.u.)
4,AACTAGGTCTGTCAGCCAACAATCACAGGAATCATTGCTACGGAGTCACCTAGTGCAG,3960 fluorescence intensity (a.u.)
5,TTGCAAATTAAACAAAATAGTATGATTTTGCGGAGTACTACGGAGTCACCTAGTGCAG,15900 fluorescence intensity (a.u.)
6,GATAATGTTATTGTAACTGCCGCAACAAGCTGCACCGAACCGGAGTCACCTAGTGCAG,4120 fluorescence intensity (a.u.)
7,CGTAGTGATTAGCATGACTATTAAAAGCACCGGGATGATACGGAGTCACCTAGTGCAG,18600 fluorescence intensity (a.u.)
8,GTTGACAAGGGATTGAGTGAGTGCGTTGTAACGGTGGGCACGGAGTCACCTAGTGCAG,7350 fluorescence intensity (a.u.)
9,TGATCAATTTAGAAAATTTAGAAAGGATGGAGCATATTTTCGGAGTCACCTAGTGCAG,4260 fluorescence intensity (a.u.)
10,CCTTCTCAAACTAATCAATTATTATTAATTCAAAACATAGCGGAGTCACCTAGTGCAG,21400 fluorescence intensity (a.u.)
11,GAGTAATTGGCAGTGATCAGCTTGCTATGATTGTGATTGACGGAGTCACCTAGTGCAG,51500 fluorescence intensity (a.u.)
12,CATTGATGACACAAAATAGTAGCAACTAAACAAACCAGAACGGAGTCACCTAGTGCAG,6690 fluorescence intensity (a.u.)
13,GGCTATTGATTAGGCCTTTTATTTTACTTGTTACTAGTAACGGAGTCACCTAGTGCAG,36600 fluorescence intensity (a.u.)
14,GTAGTTGATAATTGGGTAATAATAAACTAATAATAGCGTCCGGAGTCACCTAGTGCAG,17500 fluorescence intensity (a.u.)
15,TTAACTACAATTTGACAGAATTTTAATAAATTGAAGTGAACGGAGTCACCTAGTGCAG,26800 fluorescence intensity (a.u.)
16,TTTTATCAATCTCCTATCCCTAAAACACACCTTAATAGACCGGAGTCACCTAGTGCAG,6110 fluorescence intensity (a.u.)
17,CAATCTATCATTCTAATAACTGCACATTCAGTATCTCCAGCGGAGTCACCTAGTGCAG,4260 fluorescence intensity (a.u.)
18,CAATTCACTTTCAATCAGGACTCTGCATCATCCCAGACGGCGGAGTCACCTAGTGCAG,15900 fluorescence intensity (a.u.)
19,AAAATTTCTAACCGTATAATCACTCGGTCTAATGGTCGTACGGAGTCACCTAGTGCAG,3230 fluorescence intensity (a.u.)
20,ATATAACTTAACAATCATCTGGATCTGATTGCTTAAACTCCGGAGTCACCTAGTGCAG,36300 fluorescence intensity (a.u.)
21,AGTCATCAAAATTACGCATGTAATTAGTATATATAATTATCGGAGTCACCTAGTGCAG,9910 fluorescence intensity (a.u.)

# From article PMC7819943, “Rice protein-binding microarrays: a tool to detect cis-acting elements near promoter regions in rice”
